# Out of some 350,000 compounds screened, about 260 (0.074%) were called active. This list was built around the results that the source calls inconclusive (neither active nor inactive); the mix of calls is not that of the screen. Calls follow the shape of the dose curve; as a rule, active = well fitted inhibition curve with a large enough effect; inconclusive = small, poorly fitted or top-dose-only effect; inactive = no such curve, though single readings can be large or run the other way. Potencies of inconclusive entries are doubtful fits and often do not repeat.
# Target: Ferritin light chain (Equus caballus) (UniProt P02791)
# Sequence of UniProt P02791 (P02791 whole entry, looked up): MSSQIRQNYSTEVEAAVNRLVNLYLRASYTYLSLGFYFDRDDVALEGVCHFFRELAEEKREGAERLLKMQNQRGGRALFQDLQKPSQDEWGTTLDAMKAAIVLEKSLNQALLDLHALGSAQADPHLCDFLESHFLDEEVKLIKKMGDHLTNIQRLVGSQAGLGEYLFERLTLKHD
# Experiment: qHTS Assay for Identification of Novel General Anesthetics; also: nearly all actives have a fitted effect of over 20% in size
# Details: apoferritin/1-aminoanthracene competitive binding, fluorescence; activity change, negative = displacement: at 77.5 µM (top of the series)
# Outline: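 Steps: apoferritin (10 uM) was premixed with half-saturated 1-AMA in PBS, compounds were pin-transferred, plates stood 10 min at room temperature, fluorescence was read at 380/535 nm, and curves were fitted with a Hill equation.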
# % is scaled to controls: 0 for no effect and ±100 for the full control effect; tags tell the direction and shape of the fitted curve.
SMILES,Potency,"activity change, negative = displacement"
CC1=C(C(=O)OCc2ccc3c(c2)OCO3)C(c2ccc(F)cc2)NC(=O)N1 (stereo not given),"inconclusive: 17.8 µM [inhibitor, partial curve]",
Cc1cccc(NC(=O)C2(c3cccs3)CCOCC2)c1,"inconclusive: 31.6 µM [inhibitor, partial curve]",
C[C@H](NC(=O)c1nc[nH]c1C(=O)NCCCCCNC(=O)OC(C)(C)C)C(=O)OC(C)(C)C,"inconclusive: 5.01 µM [inhibitor, partial curve]",
Cc1ccc(OCc2ccc(C(=O)Nc3c(C)nn(Cc4c(F)c(F)c(F)c(F)c4F)c3C)o2)c([N+](=O)[O-])c1,"inconclusive: 17.8 µM [inhibitor, partial curve]",
COc1ccc(C(=O)COC(=O)c2cc(-c3cccs3)nc3ccccc23)cc1,,inactive: -10.4%
O=C(O)c1ccc(N/N=C/c2cn(Cc3ccc(F)cc3)c3ccccc23)cc1,,inactive: -2.17%
COc1ccc(CNC(=O)C(C)n2nc(C)c3c(C)n(-c4ccccc4)nc3c2=O)c(OC)c1 (stereo not given),"inconclusive: 28.2 µM [inhibitor, single point]",
Nc1c(N2CCOCC2)cc(Cl)c2nonc12,,inactive: -23.2%
COc1ccc(C(=O)CC2(O)C(=O)N(Cc3cccc(C(F)(F)F)c3)c3ccccc32)cc1 (stereo not given),"inconclusive: 12.6 µM [inhibitor, partial curve]",
Cc1nn(-c2ccc(NC(=O)c3ccncc3)cc2)c(C)c1Cl,"inconclusive: 14.1 µM [inhibitor, partial curve]",
CC(C)NC[C@H](O)c1ccc(O)c(O)c1,inactive,
CCCCOC(=O)Cn1c2ccc(OC)cc2c2nc3ccccc3nc21,,inactive: -9.04%
CN(C)S(=O)(=O)Nc1cc(Cl)cc(Cl)c1,"inconclusive: 15.8 µM [inhibitor, partial curve]",
CC(Oc1ccc2c3c(c(=O)oc2c1)CCCC3)C(=O)NCc1cccnc1 (stereo not given),"inconclusive: 44.7 µM [inhibitor, partial curve]",
CCOc1ccc(OCCCC(=O)NC2=NCCS2)cc1,,inactive: -4.64%
CCCCCCCCCCOC(=O)C[N+](C)(C)CC1CCCCC1O (stereo not given),"inconclusive: 15.8 µM [inhibitor, partial curve]",
CC12CCC(C(=O)Nc3nc4ccccc4s3)(OC1=O)C2(C)C (stereo not given),"inconclusive: 22.4 µM [inhibitor, single point]",
CCC(C)c1ccc(NC(=S)NCCn2cc(Cl)cn2)cc1 (stereo not given),"inconclusive: 31.6 µM [inhibitor, partial curve]",
CN(Cc1ccccc1)S(=O)(=O)c1ccc(NC(=O)c2cc(=O)c3ccccc3o2)cc1,,inactive: -18.7%
C=C1C(=O)C=C2CN(C(=O)c3ccccc3)[C@@](Cc3ccc(F)cc3)(C(=O)OC)[C@@H]12,inactive,

# From PubChem BioAssay AID485281 (National Center for Advancing Translational Sciences (NCATS), 2010)
